Each block holds one binder with its values, some of them ahead of it.
Experiments:
human Plasmin = human Plasmin (human, UniProt P00747 97-580; P00747 581-810, limits assumed); assay: cell-based or functional assay
human alpha2-Antiplasmin [1] = target: T1, human alpha2-Antiplasmin (human, UniProt P08697 40-491); assay: SPR Biacore T200, antibody captured on protein G chip, A2AP as analyte, 25 C
T1 construct: Bought (antibodies online, ABIN2544306); also called human A2AP; a2AP
T1 sequence: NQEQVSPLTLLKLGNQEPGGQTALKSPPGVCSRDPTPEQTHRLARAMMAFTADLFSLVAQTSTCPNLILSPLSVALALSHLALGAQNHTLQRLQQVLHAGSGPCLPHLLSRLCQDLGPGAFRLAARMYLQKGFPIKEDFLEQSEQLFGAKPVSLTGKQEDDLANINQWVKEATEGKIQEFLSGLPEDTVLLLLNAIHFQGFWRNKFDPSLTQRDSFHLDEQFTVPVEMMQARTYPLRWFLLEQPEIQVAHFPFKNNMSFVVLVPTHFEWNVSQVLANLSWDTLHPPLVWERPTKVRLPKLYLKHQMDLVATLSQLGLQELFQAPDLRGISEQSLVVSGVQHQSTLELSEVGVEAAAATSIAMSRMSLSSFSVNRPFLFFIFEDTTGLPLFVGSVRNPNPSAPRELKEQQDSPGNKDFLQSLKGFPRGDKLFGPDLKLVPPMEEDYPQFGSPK
Method: (§1) Binding assays were performed on a Biacore T200 instrument at 25° C. with a protein G sensor chip and assay buffer HBS-EP+. Antibodies were captured to ˜150 RU and analytes were used at concentrations between 1.56 and 200 nM for full kinetics. As interaction partner, alpha2-Antiplasmin from human, cynomolgus and rabbit was used. Regeneration was performed with glycine-HCl pH 1.5. Kinetic parameters were derived by fitting experimental sensorgrams to a 1:1 Langmuir binding model.

[2] = target: T2, cynomolgus alpha2-Antiplasmin (cynomolgus (Macaca fascicularis), UniProt P08697 28-491 (human entry)); assay: as above
T2 construct: Made in house in the same way as the rabbit protein; also called cynomolgus A2AP; Macaca fascicularis A2AP
T2 chain: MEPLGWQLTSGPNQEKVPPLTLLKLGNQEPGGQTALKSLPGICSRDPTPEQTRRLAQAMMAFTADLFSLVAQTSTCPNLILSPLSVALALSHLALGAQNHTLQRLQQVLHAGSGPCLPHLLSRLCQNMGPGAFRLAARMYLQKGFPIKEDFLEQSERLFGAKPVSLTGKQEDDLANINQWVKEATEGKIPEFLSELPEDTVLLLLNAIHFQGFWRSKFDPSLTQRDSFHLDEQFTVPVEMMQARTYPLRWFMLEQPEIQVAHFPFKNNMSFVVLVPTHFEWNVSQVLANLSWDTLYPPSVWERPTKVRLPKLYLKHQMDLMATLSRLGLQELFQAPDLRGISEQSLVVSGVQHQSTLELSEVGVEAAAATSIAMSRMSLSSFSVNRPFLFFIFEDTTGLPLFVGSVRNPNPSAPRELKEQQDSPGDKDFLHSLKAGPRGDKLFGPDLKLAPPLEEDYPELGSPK
Method: as §1

[3] = target: T3, rabbit alpha2-Antiplasmin (rabbit (Oryctolagus cuniculus)); assay: as above
T3 construct: Made in house in HEK293 cells, purified by Ni-IMAC and SEC (a His tag is implied but not described); also called rabbit A2AP; Oryctolagus cuniculus A2AP
T3 chain: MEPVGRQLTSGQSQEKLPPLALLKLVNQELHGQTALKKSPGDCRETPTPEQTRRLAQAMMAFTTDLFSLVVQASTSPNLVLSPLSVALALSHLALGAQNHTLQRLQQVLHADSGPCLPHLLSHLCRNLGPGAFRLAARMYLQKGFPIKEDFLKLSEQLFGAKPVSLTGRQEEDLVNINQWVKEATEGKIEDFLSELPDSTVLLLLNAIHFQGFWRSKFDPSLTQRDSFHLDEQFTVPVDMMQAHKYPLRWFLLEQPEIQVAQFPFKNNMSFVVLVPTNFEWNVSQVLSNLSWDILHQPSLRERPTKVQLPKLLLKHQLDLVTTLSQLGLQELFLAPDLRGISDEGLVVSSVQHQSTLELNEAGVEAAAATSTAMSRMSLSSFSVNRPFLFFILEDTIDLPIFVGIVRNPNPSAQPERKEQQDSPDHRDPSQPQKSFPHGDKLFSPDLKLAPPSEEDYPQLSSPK
Method: as §1

human alpha2-Antiplasmin [4] = target: T1, human alpha2-Antiplasmin; assay: cell-based or functional assay
human alpha2-Antiplasmin [5] = target: T1, human alpha2-Antiplasmin; assay: ELISA, coated antigen, quantified unpurified antibody, 1st exp.
human alpha2-Antiplasmin [6] = target: T1, human alpha2-Antiplasmin; assay: ELISA (Example 3), human alpha2-Antiplasmin coated, RFU
Method: A standard ELISA format was used for analyzing the binding affinity of Fabs of this invention to human and rabbit alpha-2-Antiplasmin, respectively. Antigens were coated to black 384 well Maxisorp microtiter plates (Nunc; catalogue number 460518), diluted to a concentration of 1 μg/ml in 1× Coating Buffer (Candor Bioscience; catalogue number 121125). Plates were incubated overnight at 4° C. After overnight incubation, plates were washed 2× with 50 μl/well using PBS+0.05% Tween 20. Following this, 50 μl/well of blocking buffer (Smart Block; Candor Bioscience; catalogue number 113500) was added and the plates were incubated for 1 hour at room temperature. Afterwards, plates were washed for 3× using […] PBS+0.05% Tween 20 buffer. Fabs of this invention were added at different concentrations in a final volume of 30 μl/well. Plates were incubated for 1 hour at room temperature. […]
(§2) For measurement, the Infinite f500 reader (Tecan) was used. Measurement mode: Fluorescence; Top reading; Ex 535 nm; Em 590 nm.
According to the method described in Example 3, these 12 antibodies were tested for ability to bind human and rabbit alpha2-Antiplasmin in a dose-dependent manner. Data generated were analyzed using the GraphPadPrism software. The binding activities of the antibodies were calculated as EC50 values. […]

human alpha2-Antiplasmin [7] = target: T1, human alpha2-Antiplasmin; assay: ELISA, coated antigen, quantified unpurified antibody, 2nd exp.
human alpha2-Antiplasmin [8] = target: T1, human alpha2-Antiplasmin; assay: cell-based or functional assay; remark: listed apart in the source
[9] = target: T3, rabbit alpha2-Antiplasmin; assay: cell-based or functional assay
human alpha2-Antiplasmin [10] = target: T1, human alpha2-Antiplasmin; assay: ELISA, coated antigen, quantified unpurified antibody, 3rd exp.
Method: A standard ELISA format was used for analyzing the binding affinity of Fabs of this invention to human and rabbit alpha-2-Antiplasmin, respectively. Antigens were coated to black 384 well Maxisorp microtiter plates (Nunc; catalogue number 460518), diluted to a concentration of 1 μg/ml in 1× Coating Buffer (Candor Bioscience; catalogue number 121125). Plates were incubated overnight at 4° C. After overnight incubation, plates were washed 2× with 50 μl/well using PBS+0.05% Tween 20. Following this, 50 μl/well of blocking buffer (Smart Block; Candor Bioscience; catalogue number 113500) was added and the plates were incubated for 1 hour at room temperature. Afterwards, plates were washed for 3× using […] PBS+0.05% Tween 20 buffer. Fabs of this invention were added at different concentrations in a final volume of 30 μl/well. Plates were incubated for 1 hour at room temperature. Following this incubation step, plates were washed for 3× using 50 μl/well of a PBS+0.05% Tween 20 buffer. For the detection of bound Fabs and full-length antibodies, the anti-Human Lambda Light Chains (Bound and Free)—Peroxidase antibody (Sigma; catalogue number A5175) was diluted by the factor of 1:10.000 in 10% Blocking Buffer. […]
as §2

human Plasmin, sequence (P00747 97-580 limits assumed, chain 1 of 2): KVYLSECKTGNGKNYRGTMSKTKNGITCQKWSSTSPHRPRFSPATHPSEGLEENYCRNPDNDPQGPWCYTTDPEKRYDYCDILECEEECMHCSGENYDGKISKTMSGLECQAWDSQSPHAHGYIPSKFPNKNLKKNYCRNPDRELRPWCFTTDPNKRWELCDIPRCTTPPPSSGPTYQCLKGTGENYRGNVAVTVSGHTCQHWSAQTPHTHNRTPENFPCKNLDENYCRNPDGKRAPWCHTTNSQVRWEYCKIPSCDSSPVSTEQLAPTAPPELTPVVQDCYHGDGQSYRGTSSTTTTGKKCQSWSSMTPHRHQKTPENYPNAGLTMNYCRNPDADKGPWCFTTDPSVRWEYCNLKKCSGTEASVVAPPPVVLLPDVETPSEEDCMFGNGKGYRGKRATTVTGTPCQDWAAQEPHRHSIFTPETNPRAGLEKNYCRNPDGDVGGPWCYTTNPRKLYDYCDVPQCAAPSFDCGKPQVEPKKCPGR
human Plasmin, sequence (P00747 581-810 limits assumed, chain 2 of 2): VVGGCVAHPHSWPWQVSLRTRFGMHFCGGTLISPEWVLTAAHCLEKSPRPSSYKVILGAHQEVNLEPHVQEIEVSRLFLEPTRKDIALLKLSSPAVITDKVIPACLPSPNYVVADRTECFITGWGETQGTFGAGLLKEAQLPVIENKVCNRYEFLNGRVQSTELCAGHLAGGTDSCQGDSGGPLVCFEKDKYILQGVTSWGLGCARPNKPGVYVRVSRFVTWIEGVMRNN

IC50 [M], inhibition of plasmin proteolytic activity (human Plasmin): > 1e-05 M
Kd (human alpha2-Antiplasmin [1]): 1 nM
Kd [2]: 2 nM
Kd [3]: 5 nM
B1: TPP-17928 hIgG4 (antibody)
heavy: EVQLLESGGGLVQPGGSLRLSCAASGFTFDDYAMSWVRQAPGKGLEWVSAIGTGGSTYYADSVKGRFTISRDNSKNTLYLQMNSLRAEDTAVYYCAREGYDSSGYYHLDYWGQGTLVTVSSASTKGPSVFPLAPCSRSTSESTAALGCLVKDYFPEPVTVSWNSGALTSGVHTFPAVLQSSGLYSLSSVVTVPSSSLGTKTYTCNVDHKPSNTKVDKRV[letters of human IgG4 Fc with S228P (EU numbers) not shown]
light: QSVLTQPPSASGTPGQRVTISCTGSSSNIGATYDVHWYQQLPGTAPKLLIYSNNQRPSGVPDRFSGSKSGTSASLAISGLRSEDEADYYCAAWDWSLSGWVFGGGTKLTVLGQPKAAPSVTLFPPSSEELQANKATLVCLISDFYPGAVTVAWKADSSPVKAGVETTTPSKQSNNKYAASSYLSLTPEQWKSHRSYSCQVTHEGSTVEKTVAPTECS

IC50 [M], inhibition of plasmin proteolytic activity (human Plasmin): > 1e-05 M
Kd (human alpha2-Antiplasmin [1]): 5.1 nM
Kd [2]: 3.8 nM
Kd [3]: 5.4 nM
EC50 (read off the curve); function blocking assay (Example 4), RFU of plasmin substrate cleavage (human alpha2-Antiplasmin [4]): ~0.2 nM
EC50 (human alpha2-Antiplasmin [5]): 0.037 nM
EC50 (read off the curve) (human alpha2-Antiplasmin [6]): ~0.04 nM
EC50 (human alpha2-Antiplasmin [7]): 0.049 nM
function blocking activity [IC50 M], 1st exp. (human alpha2-Antiplasmin [8]): 0.17 nM
function blocking activity [IC50 M], 2nd exp. (human alpha2-Antiplasmin [8]): 0.23 nM
function blocking activity [IC50 M], 3rd exp. (human alpha2-Antiplasmin [8]): 0.2 nM
function blocking IC50, purified antibody, 1st exp. (FIG. 9.3) [9]: 27 nM
function blocking IC50, purified antibody, 2nd exp. [9]: 36 nM
function blocking IC50, purified antibody, 3rd exp. [9]: 29 nM
EC50 (human alpha2-Antiplasmin [10]): 0.1 nM
B2: TPP-17044 hIgG1 (antibody)
heavy: EVQLLESGGGLVQPGGSLRLSCAASGFTFDDYAMSWVRQAPGKGLEWVSAIGTGGSTYYADSVKGRFTISRDNSKNTLYLQMNSLRAEDTAVYYCAREGYDSSGYYHLDYWGQGTLVTVSS[letters of human IgG1 constant region not shown]
light: B1 light
notes: Germline variant of TPP-14308

Source: patent publication US20240010750A1 (Bayer, published 2024)
